PubChem BioAssay AID602310 (National Center for Advancing Translational Sciences (NCATS), 2012)
Where “and” joins values, the source holds several entries; their conditions need not be identical. Identical values can stand only once. In all, about 410,000 compounds went through this assay and about 310 (0.076%) were called active. Inconclusive results, whose numbers are uncertain, are shown with a selection of clear calls. The call rests on the fitted dose curve; in most records, active means well fitted curve in the direction sought with a large enough effect; inconclusive means small, poorly fitted or top-dose-only effect; inactive means flat fitted curve, though single readings scatter. A potency beside an inconclusive call is a rough fit, not a confirmed value.

target: DNA dC->dU-editing enzyme APOBEC-3G (Homo sapiens) (UniProt Q9HC16); test: qHTS for Inhibitors of Vif-A3G Interactions: qHTS; conditions: HeLa A3G-eYFP + Vif (tagged APOBEC3G with the HIV-1 protein that degrades it), YFP fluorescence, overnight; series mostly up to 46.1 µM; further: nearly all actives have a fitted effect of over 60% in size
In short: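 HeLa cells stably expressing Vif and C-terminally eYFP-tagged A3G, seeded overnight at 37 deg C, then exposed to compound by pintool overnight at 37 deg C. Rise in yellow fluorescence (Ex 488/Em 500-530, Acumen) marks blocked Vif-driven A3G degradation.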
Potency means the concentration at half of the fitted maximal effect; tags describe the fitted curve by direction and shape.

UniProt Q9HC16, sequence (Q9HC16 whole entry, looked up): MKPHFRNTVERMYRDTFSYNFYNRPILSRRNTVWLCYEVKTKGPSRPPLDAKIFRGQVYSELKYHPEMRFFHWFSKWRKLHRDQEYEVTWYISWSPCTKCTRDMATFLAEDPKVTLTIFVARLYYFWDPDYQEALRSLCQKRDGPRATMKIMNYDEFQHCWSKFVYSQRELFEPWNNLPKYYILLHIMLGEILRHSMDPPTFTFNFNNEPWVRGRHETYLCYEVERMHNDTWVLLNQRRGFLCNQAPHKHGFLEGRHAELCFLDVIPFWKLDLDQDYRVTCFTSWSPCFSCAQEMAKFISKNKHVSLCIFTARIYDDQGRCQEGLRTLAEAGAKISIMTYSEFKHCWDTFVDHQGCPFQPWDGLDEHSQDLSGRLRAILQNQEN

| SMILES | Potency |
| --- | --- |
| CCOc1ccccc1NC(=O)c1cc2cc(C)ccc2n1C | inconclusive: 6.31 µM [inhibitor, full curve, poor fit] |
| COc1cc(/C=C(/C#N)c2nc3ccccc3[nH]2)ccc1OCC(=O)Nc1ccccc1C | inactive |
| COc1cccc2sc(Nc3nc(-c4cc5ccccc5oc4=O)cs3)nc12 | inconclusive: 1.78 µM [inhibitor, full curve, poor fit] |
| CCOc1ccc(CN2C(=O)c3ccccc3Sc3ccc(C(=O)NCCc4ccccc4)cc32)cc1 | inconclusive: 10 µM [inhibitor, partial curve] |
| O=c1c[n+]([O-])c2ccccc2n1OCc1c(F)cccc1F | inconclusive: 11.2 µM [inhibitor, partial curve, poor fit] |
| O=C(c1ccc(S(=O)(=O)c2ccccc2Cl)c([N+](=O)[O-])c1)N1CCCCCC1 | inconclusive: 25.1 µM [inhibitor, partial curve, poor fit] |
| COc1ccc(-n2cc(C(=O)c3cc(Cl)ccc3O)cc(C#N)c2=O)cc1 | inactive |
| Cc1[nH]c2ccccc2c1/C=N/Nc1ccc([N+](=O)[O-])cc1 | active: 10 µM |
| COc1cccc(-c2nnc(Nc3nc4c(F)cccc4s3)o2)c1 | inconclusive: 0.631 µM [inhibitor, full curve, poor fit] |
| CC(=O)Nc1ccc(NC(=O)COC(=O)/C(=C/c2ccccc2)n2nnnc2C)cc1 | inconclusive: 20 µM [inhibitor, single point] |
| CCOc1ccc(/C=C/c2nc(C#N)c(N3CCCCC3)o2)cc1 | inconclusive: 7.08 µM [inhibitor, partial curve, poor fit] |
| COc1ccc(OC)c(Nc2ncnc3c2cnn3-c2cccc(Cl)c2)c1 | inconclusive: 5.62 µM [inhibitor, full curve] |
| CCCCC(=O)Nc1ccc(C2C(=O)c3ccccc3C2=O)cc1 | inactive |
| CCN(CC(=O)NCc1ccc(F)cc1)C(=O)/C=C/c1ccc(S(=O)(=O)N(CC)CC)cc1 | inconclusive: 15.8 µM [inhibitor, single point] |
| O=C1CC(c2ccccc2F)c2cc3c(cc2N1)CCC3 (stereo not drawn) | inconclusive: 1.78 µM [inhibitor, full curve, poor fit] |
| CCC(Sc1ncnc2sc3c(c12)CCCC3)C(=O)OC(C)C (stereo not drawn) | inconclusive: 17.8 µM [inhibitor, single point] |
| Cc1cccc(C(=O)Nc2ccc(C(=O)OCc3cc(=O)n4nc(C5CC5)sc4n3)cc2)c1 | inactive |
| CCN(CC)CCNC(=O)c1cc(-c2ccc(Br)s2)nc2ccccc12 | inconclusive: 22.4 µM [inhibitor, single point] and inconclusive: 31.6 µM [inhibitor, single point] |
